Measured values as given in the supplement of paper PMC3334620.
The full ranking holds about 33,000 sequences; the median of “E-score (-0.5 to 0.5)” is about -0.011, and the highest 2% start at about 0.28. Some of the results follow.

Target: T1, Gcr1 (UniProt P07261)
T1 sequence: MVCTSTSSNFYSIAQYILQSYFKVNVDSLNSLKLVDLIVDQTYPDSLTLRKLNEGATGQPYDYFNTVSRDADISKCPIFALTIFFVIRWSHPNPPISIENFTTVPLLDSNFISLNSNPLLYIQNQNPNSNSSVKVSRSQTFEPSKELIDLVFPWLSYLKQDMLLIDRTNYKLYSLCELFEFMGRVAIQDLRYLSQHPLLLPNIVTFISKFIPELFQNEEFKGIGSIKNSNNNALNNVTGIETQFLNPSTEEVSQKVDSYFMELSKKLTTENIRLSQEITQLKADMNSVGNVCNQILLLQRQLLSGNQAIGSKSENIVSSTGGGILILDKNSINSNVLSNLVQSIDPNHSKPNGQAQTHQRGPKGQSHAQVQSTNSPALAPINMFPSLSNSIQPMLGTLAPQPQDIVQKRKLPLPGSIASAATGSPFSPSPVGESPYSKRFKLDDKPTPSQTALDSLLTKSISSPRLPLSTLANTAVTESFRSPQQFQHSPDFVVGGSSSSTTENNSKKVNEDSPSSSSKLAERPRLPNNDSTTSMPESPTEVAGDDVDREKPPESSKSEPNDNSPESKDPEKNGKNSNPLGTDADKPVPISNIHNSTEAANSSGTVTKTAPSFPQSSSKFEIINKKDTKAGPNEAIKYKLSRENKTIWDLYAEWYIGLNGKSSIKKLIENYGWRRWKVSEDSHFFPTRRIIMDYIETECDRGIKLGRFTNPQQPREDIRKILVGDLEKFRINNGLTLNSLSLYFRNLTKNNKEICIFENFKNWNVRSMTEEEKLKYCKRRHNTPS
Experiment: PBM E-score (8-mer binding enrichment) (E-score (-0.5 to 0.5)); higher = stronger / more preferred TF binding; most listed sequences are background and not binding sites
Conditions: protein concentration: 100 nM; construct: GST-full length
Description: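 Universal 'all 10-mer' protein binding microarrays (Agilent AMADID 015681) probed with GST-tagged S. cerevisiae TFs (full-length or DBD) made by in vitro transcription/translation (PURExpress), about 100-200 nM. Bound TF was detected with fluorescent anti-GST. Each ungapped 8-mer (which stands for itself and its reverse complement) is scored by the PBM enrichment score (E-score), a modified Wilcoxon-Mann-Whitney statistic from -0.5 to +0.5, computed with the Universal PBM Analysis Suite. Scale: above 0.35 generally sequence-specific binding.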

Sequence | PBM E-score
CTGTACAG | -0.0384
GGAATACA | -0.00837
ACCAAGAG | -0.134
ACGTTCCT | -0.0486
CTAACAAG | 0.129
ATCGGGGA | -0.0517
AGCGGATA | 0.0701
CGGCTCTC | -0.134
GAGCTCAA | -0.17
CGGCGCCC | 0.359
AGAGTGAA | 0.0212
GGCTAGAA | -0.0827
ACGCCCCT | -0.19
AGAGGCGC | 0.279
ACGACCAC | 0.0266
GCGGCTCA | 0.19
CGTTATAG | -0.142
ATGTGGTG | 0.0573
AAACCGAT | -0.0704
CAGCGGCC | 0.166
AACCCCCA | -0.138
CATTTCTC | 0.111
TGAGAAAA | 0.0932
GCACTGCC | -0.0612
GAGGTTCA | -0.16

Sequence | PBM E-score
TACCCGAA | 0.0359
CGCACCTA | 0.0792
ACATATCG | -0.0943
CGTACTTC | 0.00512
ATAGGCAG | 0.227
ACAACAGA | -0.18
AGCCCAGA | 0.0713
CTAAAAAC | -0.0549
CCTAGCCG | -0.0179
GCGCGTCC | 0.157
AACTTATC | 0.166
ATCACCCC | 0.108
GAGACTGC | -0.187
GCGCTTCA | -0.0425
AAGACCAA | -0.003
AAGGGGCG | -0.119
CCACGTAG | 0.0903
CGTTAAAG | -0.00879
CGTGCTTC | 0.0359
TCGTGTCA | -0.056
ACTGATTA | 0.078
CCCTGCGC | -0.105
AAACTATG | 0.0028
ACGTTAAA | -0.0417
AAGTGTCC | -0.173

Sequence | PBM E-score
AACTAGTA | 0.176
AGAATACT | 0.0845
CCCAGAAG | 0.233
CAACCAGA | 0.182
AGCCTTGG | -0.156
CAAGTAAC | -0.0163
CGAGGCTA | -0.0217
ATGTATGA | 0.0274
GCACTCTA | 0.0088
CCCATTGA | 0.0816
GCCATCAC | -0.195
AACGAGTT | -0.00987
CAACTAAA | 0.11
ACGTTTAA | 0.0916
ATCTTTGC | 0.0825
GGCGTCCA | 0.436
CAACGTTG | 0.0373
AATTCGGA | 0.16
CTCGTTAA | 0.00746
GCAAACAA | 0.0185
AGTCAAAC | -0.0456
GGCAACTA | 0.143
CAACATCG | -0.119
ACGGGTAT | 0.0426
GATAAACA | 0.0306

Sequence | PBM E-score
CGGATCAG | 0.11
ACATAGGG | 0.0186
GCTTTACA | -0.0635
GGACACCA | 0.24
GAGCACTC | -0.109
CTTGATAC | 0.0039
GCCATAAC | -0.048
AAGCGCAC | -0.31
CAGGCGCC | 0.361
TACTCATA | -0.0456
CCTAAAAC | 0.2
CTTCCACA | 0.349
AGGATTAC | 0.0473
ATCGCCAC | -0.115
GGTCTGGA | 0.0233
ACGAGCTA | 0.029
GAAATCCC | 0.143
ATGTTAAG | 0.0601
AAACTTTG | 0.124
GGGCCCTA | 0.0423
GGCGTCAC | -0.128
AACGAAAC | -0.0313
TGAAAGCA | 0.00794
CTGAGCCA | -0.125
ACGATCAG | -0.0734

Sequence | PBM E-score
GTAACCTA | 0.116
GCTCCAAC | 0.0619
AACATCTC | -0.136
AAGGCCAC | -0.0718
AGGAGCGG | 0.112
GACGCCGA | 0.211
GCCGGGAC | -0.196
CCACCAGC | 0.145
CGAGTTCC | 0.117
TAATCATA | -0.0415
GAAACTGC | -0.205
CCCCATTC | 0.157
GGAGGTAC | -0.246
ATGCCACA | 0.251
CGCCGTAG | 0.242
CAAAACTC | 0.06
GGCGAACC | -0.129
ACTTATGC | 0.0516
GAGATATC | -0.163
TCCCGCGA | -0.114
TGATGACA | -0.0722
CGAATTAC | 0.0492
GCCCGCTA | -0.125
ACAATACA | -0.0375
CCGCGCGG | 0.0164

Sequence | PBM E-score
CGGGTCCA | -0.146
AGGGTGCG | 0.0402
GCGTCGCA | 0.0686
CACAAATA | 0.186
CGATACAA | 0.0197
AGAGAGCA | -0.227
ACCAATAC | 0.189
TTAACAAA | 0.227
ATAAGGTC | -0.0111
AGTACTTA | 0.0681
ACGGGATA | 0.0896
CCAGGGCA | -0.14
CCCAGGAG | -0.0352
CAGAACAA | 0.0719
CCTCGAGC | -0.102
AGCGAACT | -0.126
GACATATC | -0.0369
AGCCAACG | -0.00833
ATGCATTC | -0.0429
GCTCCGCA | 0.0293
TCGGAAAA | 0.00753
AATGACCA | -0.0269
CGTGCACA | -0.209
AGTTCGAC | 0.0317
CATAGCCG | -0.21

Sequence | PBM E-score
ACCACTAC | 0.129
GTGCTAAA | 0.0224
GCAACTTA | 0.223
CCCTCGAA | -0.157
AACAGCAT | 0.0511
ATAGGGCA | 0.0841
CCATACCG | 0.164
GTAAACAC | -0.0659
AGTTAACA | 0.157
CACTTTCA | 0.169
AGTACCTA | -0.00963
TATGAATA | 0.176
GACCGTCA | -0.272
GCATGACC | -0.239
AAGTCGAA | 0.0262
CGCTGCGC | 0.0562
ATCAATAA | 0.0198
AACCGCTA | 0.0976
CGTCAAAC | 0.0735
AAGCTAGT | -0.01
AACCAATT | 0.0895
GCTGTCCA | -0.0454
CTTTGAAA | 0.112
TCAGTCCA | -0.276
CGGCGGCA | -0.168

Sequence | PBM E-score
CGGCAGTC | 0.00341
TATAGCCA | 0.0685
CCAGTTCC | 0.145
AAACCTTT | -0.111
CATGTCGA | -0.0877
TAATTTGA | 0.0557
TACTTATA | 0.118
AAAGATCT | -0.299
ATCTCGCC | -0.116
TCCGGCCA | -0.232
ATACGTTG | 0.109
CGCATCAC | 0.179
AGTCTGTC | -0.152
ACTAGTGG | 0.219
CGACGCAA | -0.234
TCGCCGCA | 0.0198
ATAGCAAC | 0.0791
AAGAGGGA | -0.189
AGAGACGG | -0.0393
AGGTGTGA | -0.0738
AGCGATAG | -0.122
CCATGTTA | -0.0553
CCTCGTAA | 0.0163
ACGAGACC | -0.0249
CGCAGGCG | 0.00025

Sequence | PBM E-score
CCAGTTTA | 0.069
AGCGTCGG | -0.0683
TAATACCA | 0.0622
ACAGAGAG | -0.245
AACTTCTA | 0.178
AATGACAA | -0.0872
AGGTCACA | -0.15
GCGGTCAC | -0.0316
AACAACGA | -0.0377
CAGGGCGG | -0.27
AGGACCTA | -0.0741
TAGGCGAA | 0.183
ATGCCATG | -0.125
CATCGCGG | -0.132
AGCGCATC | 0.127
TGCTGAAA | 0.0615
AAATCACT | -0.0987
CTGTCTCC | -0.0163
ACGCTCCT | -0.0698
